From the supplement of paper PMC4604168 (melanoma cell lines)
Some of the results follow. Many values rest on one well or one pass, so single values are uncertain.
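Note: cells treated in 1,536-well plates, then fixed and DAPI-stained, with nuclei counted from automated high-throughput microscope images.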

What follows are molecules tested on SkMel5 (assay: cell count relative to DMSO control; melanoma cells; higher = more viable cells). Conditions: library dose: standard library concentration; 72 h.
Work on CC1(C)NC(=O)N(c2ccc([N+](=O)[O-])c(C(F)(F)F)c2)C1=O [nilutamide] + CCc1ccc(CCOc2ccc(CC3SC(=O)NC3=O)cc2)nc1 [pioglitazone] (first compound 5 µM, partner dose 10 µM) yielded a cell count of 80.7%.
O=C(Nc1cccc(Cl)c1)Nc1ncc(CCNc2ncnc3ccsc23)s1 + CC(C)CCN1c2nc(Nc3cc(F)c(O)c(F)c3)ncc2N(C)C(=O)C1C [BID1870] (first compound 0.004 µM, partner dose 1 µM) was tested, and the cell count was 52.5%.
For COc1cc(Nc2ncc(F)c(Nc3ccc4c(n3)NC(=O)C(C)(C)O4)n2)cc(OC)c1OC [Tamatinib] + N#Cc1c(O)c2c(-c3ccc(-c4ccccc4O)cc3)csc2[nH]c1=O [A769662] (first compound 2 µM, partner dose 10 µM), the cell count was 61.8%.
Molecule O=C(Nc1cccc(Cl)c1)Nc1ncc(CCNc2ncnc3ccsc23)s1 + COC(=O)c1sccc1S(=O)(=O)Nc1ccc(Nc2ccccc2)cc1OC [GSK0660] (first compound 0.004 µM, partner dose 5 µM) has a cell count of 74.6%.
Work on O=C(Nc1cccc(Cl)c1)Nc1ncc(CCNc2ncnc3ccsc23)s1 + c1cc(-c2cnn3cc(-c4ccc(OCCN5CCCCC5)cc4)cnc23)ccn1 [Dorsomorphin] (first compound 0.004 µM, partner dose 2 µM) yielded a cell count of 79.3%.
CC1(C)NC(=O)N(c2ccc([N+](=O)[O-])c(C(F)(F)F)c2)C1=O [nilutamide] + COc1ccc2c(c1)CCC1C2CCC2(C)C(NCCCCCCN3C(=O)C=CC3=O)CCC12 [U73122] (first compound 5 µM, partner dose 2 µM) gave a cell count of 89.9%.
With O=C(Nc1cccc(Cl)c1)Nc1ncc(CCNc2ncnc3ccsc23)s1 + Oc1cc(-c2nc(-c3ccccc3)[nH]c2-c2ccncc2)ccc1Cl [L779450] (first compound 0.004 µM, partner dose 1 µM) the cell count was 66%.
CC1(C)NC(=O)N(c2ccc([N+](=O)[O-])c(C(F)(F)F)c2)C1=O [nilutamide] + Cc1cc([N+](=O)[O-])ccc1NS(=O)(=O)c1cc(Cl)ccc1Cl [FH535] (first compound 5 µM, partner dose 5 µM) gave a cell count of 64.7%.
Work on O=C(O)c1ccc(-c2c[nH]c3ncc(-c4ccccc4)cc23)cc1C1CCCC1 + CC(C)CCN1c2nc(Nc3cc(F)c(O)c(F)c3)ncc2N(C)C(=O)C1C [BID1870] (first compound 0.8 µM, partner dose 1 µM) yielded a cell count of 89.5%.
Cn1cncc1[C@@](N)(c1ccc(Cl)cc1)c1ccc2c(c1)c(-c1cccc(Cl)c1)cc(=O)n2C [tipifarnib] + COc1cc(N2CCC(N3CCN(C)CC3)CC2)ccc1Nc1ncc(Cl)c(Nc2ccccc2S(=O)(=O)C(C)C)n1 [NVP-TAE684] (first compound 0.05 µM, partner dose 0.4 µM) gave a cell count of 66.8%.
O=C(O)c1ccc(-c2c[nH]c3ncc(-c4ccccc4)cc23)cc1C1CCCC1 + COc1ccc2c(c1)CCC1C2CCC2(C)C(NCCCCCCN3C(=O)C=CC3=O)CCC12 [U73122] (first compound 0.8 µM, partner dose 2 µM) showed a cell count of 91%.
For C[C@@H]1CCN(C(=O)CC#N)C[C@@H]1N(C)c1ncnc2[nH]ccc12 + O=C(O)C(=O)Nc1sc2c(c1C(=O)O)CCNC2 [TCS401] (first compound 5 µM, partner dose 8.33333 µM), the cell count was 99.2%.
Work on C[C@@H]1CCN(C(=O)CC#N)C[C@@H]1N(C)c1ncnc2[nH]ccc12 + CCCCCCCCCCCC1=C(O)C(=O)C=C(O)C1=O [Embelin] (first compound 5 µM, partner dose 6 µM) yielded a cell count of 130%.
For O=C(Nc1cccc(Cl)c1)Nc1ncc(CCNc2ncnc3ccsc23)s1 + COc1ccc(COc2ccc(Cc3cnc(N)nc3N)cc2OC)cc1 [GW2580] (first compound 0.004 µM, partner dose 5 µM), the cell count was 73.2%.
With COc1cc(Nc2ncc(F)c(Nc3ccc4c(n3)NC(=O)C(C)(C)O4)n2)cc(OC)c1OC [Tamatinib] + COc1ccc2c(c1)CCC1C2CCC2(C)C(NCCCCCCN3C(=O)C=CC3=O)CCC12 [U73122] (first compound 2 µM, partner dose 2 µM) the cell count was 64.6%.
In the case of C[C@@H]1CCN(C(=O)CC#N)C[C@@H]1N(C)c1ncnc2[nH]ccc12 + O=C(Nc1ccccc1)c1cc([N+](=O)[O-])ccc1Cl [GW9662] (first compound 5 µM, partner dose 10 µM), the cell count is reported as 83.9%.
C[C@@H]1CCN(C(=O)CC#N)C[C@@H]1N(C)c1ncnc2[nH]ccc12 + CC(C)CCN1c2nc(Nc3cc(F)c(O)c(F)c3)ncc2N(C)C(=O)C1C [BID1870] (first compound 5 µM, partner dose 1 µM) showed a cell count of 74.1%.
With O=C(O)c1ccc(-c2c[nH]c3ncc(-c4ccccc4)cc23)cc1C1CCCC1 + Oc1cc(-c2nc(-c3ccccc3)[nH]c2-c2ccncc2)ccc1Cl [L779450] (first compound 0.8 µM, partner dose 1 µM) the cell count was 64.7%.
For Cn1cncc1[C@@](N)(c1ccc(Cl)cc1)c1ccc2c(c1)c(-c1cccc(Cl)c1)cc(=O)n2C [tipifarnib] + O=S(=O)(c1ccccc1)N(CC(F)(F)F)c1ccc(C(O)(C(F)(F)F)C(F)(F)F)cc1 [T0901317] (first compound 0.05 µM, partner dose 7 µM), the cell count was 64.3%.
CC1(C)NC(=O)N(c2ccc([N+](=O)[O-])c(C(F)(F)F)c2)C1=O [nilutamide] + O=S(=O)(c1ccccc1)N(CC(F)(F)F)c1ccc(C(O)(C(F)(F)F)C(F)(F)F)cc1 [T0901317] (first compound 5 µM, partner dose 7 µM) showed a cell count of 62%.
O=C(Nc1cccc(Cl)c1)Nc1ncc(CCNc2ncnc3ccsc23)s1 + COc1ccc(-c2ccc3c(N4CCOCC4)nc(N4C[C@@H](C)O[C@@H](C)C4)nc3n2)cc1CO [KU0063794] (first compound 0.004 µM, partner dose 0.1 µM) gave a cell count of 47.3%.
Molecule CC1(C)NC(=O)N(c2ccc([N+](=O)[O-])c(C(F)(F)F)c2)C1=O [nilutamide] + CCCCCCCCCCCC1=C(O)C(=O)C=C(O)C1=O [Embelin] (first compound 5 µM, partner dose 6 µM) has a cell count of 95%.
COc1cc(Nc2ncc(F)c(Nc3ccc4c(n3)NC(=O)C(C)(C)O4)n2)cc(OC)c1OC [Tamatinib] + COc1cc(N2CCC(N3CCN(C)CC3)CC2)ccc1Nc1ncc(Cl)c(Nc2ccccc2S(=O)(=O)C(C)C)n1 [NVP-TAE684] (first compound 2 µM, partner dose 0.4 µM) was tested, and the cell count was 30.8%.
For COc1cc(Nc2ncc(F)c(Nc3ccc4c(n3)NC(=O)C(C)(C)O4)n2)cc(OC)c1OC [Tamatinib] + Cc1cc([N+](=O)[O-])ccc1NS(=O)(=O)c1cc(Cl)ccc1Cl [FH535] (first compound 2 µM, partner dose 5 µM), the cell count was 43.7%.
With CC1(C)NC(=O)N(c2ccc([N+](=O)[O-])c(C(F)(F)F)c2)C1=O [nilutamide] + COc1ccc(-c2ccc3c(N4CCOCC4)nc(N4C[C@@H](C)O[C@@H](C)C4)nc3n2)cc1CO [KU0063794] (first compound 5 µM, partner dose 0.1 µM) the cell count was 73.7%.
O=C(O)c1ccc(-c2c[nH]c3ncc(-c4ccccc4)cc23)cc1C1CCCC1 + COc1cc(N2CCC(N3CCN(C)CC3)CC2)ccc1Nc1ncc(Cl)c(Nc2ccccc2S(=O)(=O)C(C)C)n1 [NVP-TAE684] (first compound 0.8 µM, partner dose 0.4 µM) gave a cell count of 68.3%.
In the case of Cn1cncc1[C@@](N)(c1ccc(Cl)cc1)c1ccc2c(c1)c(-c1cccc(Cl)c1)cc(=O)n2C [tipifarnib] + CCCCCCCCCCCC1=C(O)C(=O)C=C(O)C1=O [Embelin] (first compound 0.05 µM, partner dose 6 µM), the cell count is reported as 63.9%.
CC1(C)NC(=O)N(c2ccc([N+](=O)[O-])c(C(F)(F)F)c2)C1=O [nilutamide] + CCN(CC)CCCCNc1ncc2cc(-c3cc(OC)cc(OC)c3)c(NC(=O)NC(C)(C)C)nc2n1 [PD173074] (first compound 5 µM, partner dose 0.5 µM) was tested, and the cell count was 104%.
Work on C[C@@H]1CCN(C(=O)CC#N)C[C@@H]1N(C)c1ncnc2[nH]ccc12 + CCc1ccc(CCOc2ccc(CC3SC(=O)NC3=O)cc2)nc1 [pioglitazone] (first compound 5 µM, partner dose 10 µM) yielded a cell count of 82.6%.
Molecule Cn1cncc1[C@@](N)(c1ccc(Cl)cc1)c1ccc2c(c1)c(-c1cccc(Cl)c1)cc(=O)n2C [tipifarnib] + Oc1cc(-c2nc(-c3ccccc3)[nH]c2-c2ccncc2)ccc1Cl [L779450] (first compound 0.05 µM, partner dose 1 µM) has a cell count of 51%.
Molecule Cn1cncc1[C@@](N)(c1ccc(Cl)cc1)c1ccc2c(c1)c(-c1cccc(Cl)c1)cc(=O)n2C [tipifarnib] + COc1ccc(-c2ccc3c(N4CCOCC4)nc(N4C[C@@H](C)O[C@@H](C)C4)nc3n2)cc1CO [KU0063794] (first compound 0.05 µM, partner dose 0.1 µM) has a cell count of 61.5%.
Cn1cncc1[C@@](N)(c1ccc(Cl)cc1)c1ccc2c(c1)c(-c1cccc(Cl)c1)cc(=O)n2C [tipifarnib] + CCN(CC)CCCCNc1ncc2cc(-c3cc(OC)cc(OC)c3)c(NC(=O)NC(C)(C)C)nc2n1 [PD173074] (first compound 0.05 µM, partner dose 0.5 µM) gave a cell count of 90.3%.
